# The whole screen tested about 420,000 compounds, of which about 64,000 (15%) were called active. Inconclusive means that the source gave no clear call. Such entries were picked first, then a sample of the others. Calls come from the whole dose curve; as a rule, active = well fitted inhibition curve with a large enough effect; inconclusive = small, poorly fitted or top-dose-only effect; inactive = flat fitted curve, though single readings scatter. No potency is given beside an inconclusive call; the fits are too rough.
# Experiment: qHTS for Inhibitors of human tyrosyl-DNA phosphodiesterase 1 (TDP1): qHTS in cells in absence of CPT; note: nearly all actives have a fitted effect of over 55% in size
# Conditions: DT40 Tdp1-/- hTDP1 cells, no CPT, ATP luminescence, 48 h; activity change, negative = growth inhibition: at 46.2 µM (top of the series) unless noted
# Method in brief: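 Chicken DT40 Tdp1-/- cells complemented with human TDP1, screened without camptothecin (DMSO vehicle only), 400 cells/well. Compounds pin-transferred, cells incubated at 37 °C for at least 48 hr. Growth read as ATP-dependent luminescence (CellTiter-Glo, 30 min at RT).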
# % is set by controls: 0 for no effect and ±100 for the full control effect; potency is the fitted concentration of half-maximal effect; tags give direction and shape of the fitted curve.
SMILES,"activity change, negative = growth inhibition",Potency
CCOc1nc(-c2ccc(Cl)cc2Cl)ccc1C#N,inactive: -15.9%,
COC(=O)c1c(NC(=O)Cc2cccs2)sc(C(=O)NC2CCCCC2)c1C,,"inconclusive [inhibitor, partial curve]"
COc1ccc(NC(=O)CSc2nc(C3CC3)nc3ccccc23)cc1,,"inconclusive [inhibitor, partial curve]"
CNC(=S)Nc1cccc(S(=O)(=O)NCc2ccco2)c1,inactive: -11.8%,
CCOc1ccccc1CN1CCN(Cc2nc3ccccc3s2)CC1CCO (stereo unspecified),,"inconclusive [inhibitor, partial curve]"
Cc1ccc(OCC(=O)Nc2cc(S(=O)(=O)N3CCOCC3)ccc2Cl)c([N+](=O)[O-])n1,inactive: -5.33%,
Cc1noc(-c2ccc(Cl)cc2)c1C(=O)O/N=C(\N)c1ccc(C(C)(C)C)cc1,,"inconclusive [inhibitor, single point]"
CCCCCCN1C=C/C(=C\C=C(C#N)C#N)c2ccccc21,,active: 23.1 µM
CN(Cc1cnn(C)c1)Cc1nc(C(c2ccccc2)c2ccccc2)no1,inactive: -11.2%,
O=C(N/N=C/c1c(F)c(F)c(F)c(F)c1F)c1cc(-c2ccccc2)nc2ccccc12,inactive: -28.7%,
Cc1cc(Cl)ccc1OCC(=O)N/N=C1\CCCc2ccccc21,,"inconclusive [inhibitor, single point]"
COc1ccc(OCC(=O)Nc2ccc3c(c2)nc(CCN2CCCCC2)n3C)cc1,inactive: 16.7%,
Cc1c(C(=O)NCC2(N3CCOCC3)CCCCC2)cnn1-c1nccc(-c2ccccc2F)n1,,"inconclusive [inhibitor, single point]"
Oc1ccc(/C=N/N2CCCCC2)c(O)c1O,,active: 10.3 µM
CC1CCCC(C)N1CCCNC(=O)Cn1cc2c(n1)CCCC2 (stereo unspecified),inactive: -9.49%,
Cc1ccc2nc(C(C)(C)C)c(Cc3cccc(F)c3)n2c1,,active: 18.4 µM
CCc1ccccc1Nc1ncnc2c1nc1n2CCCC1,inactive: -18.5%,
Cc1ccc(-c2ccc3nnc(SCC(N)=O)n3n2)cc1,,"inconclusive [inhibitor, single point]"
COc1cccc(C2C(C(=O)Nc3ccccc3OC)=C(C)Nc3nc4ccccc4n32)c1 (stereo unspecified),,active: 14.6 µM
CCc1cccc(NC(=O)c2ccc(Cn3nc(C)cc3C)o2)c1,,"inconclusive [inhibitor, single point]"
NS(=O)(=O)c1ccc(CCNC(=O)c2nc(SCc3ccccc3F)ncc2Cl)cc1,,"inconclusive [inhibitor, partial curve, poor fit]"
CCOc1ccc(-c2nnc3n2N=C(c2ccc(OC)cc2)CS3)cc1,,"inconclusive [inhibitor, single point]"
COc1cccc(Oc2c(C)oc3c(CN4CCCC4)c(O)ccc3c2=O)c1,inactive: 0.758%,
Cc1ccc(C)c(N2CCN(C(=O)CCc3nc(-c4ccccc4C)no3)CC2)c1,,"inconclusive [inhibitor, single point]"
COc1ccc(-c2cnnc(N/N=C/c3ccc(O)cc3)n2)cc1,,active: 11.6 µM
CCOC(=O)C(NC(=O)CC(C)C)(Nc1sc(C)c(CC)c1C#N)C(F)(F)F (stereo unspecified),,"inconclusive [inhibitor, single point]"

SMILES,"activity change, negative = growth inhibition",Potency
O=C(Nc1nnc(-c2ccccc2SCc2ccccc2)s1)Nc1ccccc1F,,"inconclusive [inhibitor, single point]"
O=C(O)CCNc1ccc(NCCC(=O)O)c2c1C(=O)c1ccccc1C2=O,,"inconclusive [inhibitor, partial curve]"
O=C(COc1cccc(Cl)c1)NCc1ccccc1,inactive: -10.2%,
Clc1cccc(Nc2ncnc3ccc(Br)cc23)c1,,"inconclusive [inhibitor, partial curve]"
COc1ccc(Cl)cc1NC(=O)C1CCN(C(=O)Nc2ccccc2)CC1,,"inconclusive [inhibitor, single point]"
O=C(CSc1nnc(CNC(=O)c2ccccc2)n1-c1cccc(Cl)c1)Nc1ccccc1F,,"inconclusive [inhibitor, single point]"
Cc1cc(C)c(-c2csc(NC(=O)c3cc([N+](=O)[O-])ccc3N3CCOCC3)n2)c(C)c1,,"inconclusive [inhibitor, single point]"
Cc1nn(C)cc1S(=O)(=O)N1CCN(c2ccccc2F)CC1,inactive: -22.5%,
Cc1nnc(SCC(=O)Nc2ccccc2C(=O)NC2CC2)s1,inactive: -8.06%,
CCOc1ncccc1C(=O)Nc1cc(S(=O)(=O)N2CCCCC2)ccc1OC,,"inconclusive [inhibitor, single point]"
CC(C)[C@H]1COCCS(=O)(=O)N1Cc1ccccc1-c1cccc(Cl)c1,,"inconclusive [inhibitor, single point]"
CCc1ccc(NC(=O)[C@H](Cc2c[nH]c3ccccc23)NC(=O)[C@@H]2Cc3ccccc3CN2)cc1,,"inconclusive [inhibitor, single point]"
CCNC(=O)N1CCC(c2nc3ccccc3s2)CC1,inconclusive: -30% [inhibitor],
O=C(NCC(=O)N1CCCC(C(F)(F)F)C1)c1ccc(Oc2ccccc2)cc1 (stereo unspecified),inactive: -19.8%,
CCOC(=O)c1c(C)oc2nc(C)nc(N3CCN(c4ccccc4)CC3)c12,,active: 14.6 µM
COc1ccccc1N1CCN(C(=O)CCS(=O)(=O)c2cc(Br)cc3c2N(C(=O)C2CC2)CC3)CC1,,"inconclusive [inhibitor, single point]"
COc1ccccc1NC(=O)CSc1nc(N)cc(N)n1,,"inconclusive [inhibitor, partial curve, poor fit]"
Cc1cc(C(=O)c2ccc(C(C)(C)C)cc2)c(NC(=O)CCl)s1,,active: 4.61 µM
O=C(Nc1ccc(F)cc1)c1cccn1-c1nnc(N2CCCCC2)s1,,"inconclusive [inhibitor, single point]"
CCOc1ccc(/C(O)=C2\C(=O)C(=O)N(c3ccc(OC)cc3)C2c2ccccc2[N+](=O)[O-])cc1 (stereo unspecified),inactive: -24%,
COc1cccc(CN2CCN(C(c3ccccc3)c3ccccc3)CC2)c1O,,active: 20.6 µM
Cc1cc(C)c(S(=O)(=O)c2ccccc2)c(OC(=O)c2c(Cl)cc(Cl)cc2Cl)n1,,"inconclusive [inhibitor, single point]"
Cc1ccc(-c2csc(/C(C#N)=C/c3ccccc3Cl)n2)cc1,inactive: 6.22%,
CCOC(=O)CC(=O)CSc1nccc(-c2cccnc2)n1,inconclusive: -33.1% [inhibitor],
CN(CC1COc2ccccc2O1)C(=O)c1ccc(Cl)c(S(=O)(=O)N2CCCCCC2)c1 (stereo unspecified),,"inconclusive [inhibitor, single point]"
c1ccc2oc(-c3[nH]ncc3CN3CCSCC3)cc2c1,inactive: -26.7%,

SMILES,"activity change, negative = growth inhibition",Potency
Cc1cn2c(=O)cc(COc3ccccc3NC(=O)c3ccccc3C)nc2s1,,"inconclusive [inhibitor, partial curve]"
COc1cccc(CN2CC(C(=O)NCCN3CCOC3=O)CCC2=O)c1 (stereo unspecified),inactive: 14.2%,
Cc1ccc(-n2ncc3c(=O)n(CC(=O)N4CCCc5ccccc54)cnc32)cc1C,,active: 16.4 µM
CCCNC(=O)c1cnc2sc(N3CCCCC3)nn2c1=O,inactive: -15.7%,
CC(=NCCc1c(C)[nH]c2ccc(OCc3ccccc3)cc12)C1=C(O)CC(c2ccccc2)CC1=O (stereo unspecified),,"inconclusive [inhibitor, single point]"
COc1ccc2[nH]c(=O)c(CN(CC3CCCO3)C(=S)Nc3ccc(C)cc3)cc2c1 (stereo unspecified),,active: 16.4 µM
CC(C)c1ccc(NC(=O)C(c2ccccc2)N2CCOCC2)cc1 (stereo unspecified),inconclusive: -31.1% [inhibitor],
COc1ccc(NC(=O)CN(C)C(=O)c2ccc3ccccc3c2)cc1,,"inconclusive [inhibitor, single point]"
CCCCN(C)C(=O)Cn1nc(Cc2ccncc2)c2ccccc2c1=O,inactive: -8.42%,
O=C1c2ccccc2C(c2nnnn2Cc2ccccc2)N1CCc1c[nH]c2ccccc12 (stereo unspecified),,"inconclusive [inhibitor, single point]"
O=C(O)c1ccccc1C(=O)Nc1ccc(Oc2ccccc2)cc1,inactive: -16.7%,
O=C1/C(=C\c2cccnc2)SC(=S)N1C1CCS(=O)(=O)C1 (stereo unspecified),,active: 18.4 µM
CCOC(=O)N1CCN(c2cc(N3CCOCC3)c(F)cc2[N+](=O)[O-])CC1,,"inconclusive [inhibitor, partial curve]"
CCN1CCN(C(=O)c2sc3nc(C)nc(N4CCC(C)CC4)c3c2C)CC1,,"inconclusive [inhibitor, full curve]"
CC1=C(C)CC2C(C1)C(=O)c1ccc(Br)cc1S2(=O)=O (stereo unspecified),inactive: -21.5%,
CN=CC1=C(O)CC(C)(C)CC1=O,inactive: -9.17%,
OCCSc1ccc2nnc(-c3ccccc3)n2n1,,"inconclusive [inhibitor, partial curve]"
O=C(c1ccccc1)c1cc[n+]([O-])cc1,inactive: -4.88%,
COc1ccc(-c2cc3ccccc3oc2=O)cc1NC(=O)c1ccc([N+](=O)[O-])o1,,active: 14.6 µM
Cc1ccc2c(c1)N(C(=O)CCC(=O)NCc1ccccc1)CC(C)O2 (stereo unspecified),inactive: -6.47%,
COc1ccc(-n2nc3c(c2NC(=O)Cc2cccc(C)c2)CS(=O)C3)cc1 (stereo unspecified),inactive: -2.75%,
CCOc1ccccc1CNC(=O)c1ccc2nc(Cc3ccc(OC)cc3)oc2c1,,"inconclusive [inhibitor, single point]"
CCC(=O)Nc1nc2ccccc2n1Cc1ccc(C)cc1,,active: 10.3 µM
CCCNC(=O)C1(C)CCCN(C(=O)c2ccccc2OC(F)(F)F)C1 (stereo unspecified),inactive: -17.1%,

# Source: PubChem BioAssay AID686978 (National Center for Advancing Translational Sciences (NCATS), 2013)
